To fix the notation:
B1: OR4K15 (parent)
chain: GUUAACGGUCAUAGGCCAUGGAAACUAGGAGCACCAUUUCGCUGCCAGUGAAGAAAUGAACAAAGAAAAUCUGGGCCAGGCAGGCAUCAAAAGAAAUAGUCUUGCGCUCAACCAGAAAGUCUGUAAUCAUUUUAAGGGUA

Read counts are not given, so values of variants with three or more changes are uncertain.

Variants of B1 are the subject of the series. As to the kind of experiment: self-cleavage, relative activity (ratio to wild type); higher = more cleavage; in vitro, sequencing; the parent is a self-cleaving ribozyme.
GUUAACGGUCAUAGGCCAUGGAAACUAGGAGCACCAUUUCGCUGCCAGUGAAGAAAUGAACAAAGAAAAUCUGGGCCAGGCAGGCAUCUAAAGAAAUAGUCUUGCGCCCAACUAGAAAGUCUGUAAUCAUUUUAAGGGUA [A89U U108C C113U]: the self-cleavage was determined as 0.01. For the variant GUUAACGGUCAUAGGCCAUGGAAACUAGGAGCACCAUUUCGCUGCCAGUGAAGAAAUGAACAAAGAAAAUCUGGGCCAGGCAGGCAUCAGGAGAAAUAGUCUUGCGCUCAACCAGAAAGUCCGUAAUCAUUUUAAGGGUA [A90G A91G U122C], the self-cleavage stood at 0.84.

As for GUUAACGGUCAUAGGCCAUGGAAACUAGGAGCACCAUUUCGCUGCCAGUGAAGAAAUGAACAAAGAAAAUCUGGGCCAGGCAGGCAUCGAAAGAAAUAGUCUUGCGCUCAACCAGAAAGUCUGCAAUCAUUCUAAGGGUA [A89G U124C U132C], the self-cleavage was determined as 0.83. To GUUAACGGUCAUAGGCCAUGGAAACUAGGAGCACCAUUUCGCUGCCAGUGAAGAAAUGAACAAAGAAAAUCUGGGCCAGGCAGGCAUCACAUGAAAUAGUCCUGCGCUCAACCAGAAGGUCUGUAAUCAUUUUAAGGGUA [A90C A92U U102C A118G] belongs 2.2. The result for GUUAACGGUCAUAGGCCAUGGAAACUAGGAGCACCAUUUCGCUGCCAGUGAAGAAAUGAACAAAGAAAAUCUGGGCCAGGCAGGCAUCAGAAGAAGUAGUCUUGCGCUCAACCAGAAAGUCUGUAAUCAUUUUAUGGGUA [A90G A96G A135U] reads 1.5; that for GUUAACGGUCAUAGGCCAUGGAAACUAGGAGCACCAUUUCGCUGCCAGUGAAGAAAUGAACAAAGAAAAUCUGGGCCAGGCAGGCAUCGAAAGAAAUAGUCUUGCGCUCAACCAGAUAGUCUGUAAUCAUCUUAAGGGUG [A89G A117U U131C A140G], 1.24. Consider GUUAACGGUCAUAGGCCAUGGAAACUAGGAGCACCAUUUCGCUGCCAGUGAAGAAAUGAACAAAGAAAAUCUGGGCCAGGCAGGCAUCAGGAGGAAUAGUCUUGCGCUCAACCAGAAAGUCUGUAAUCAUUUUAAGGGUA [A90G A91G A94G], for which the self-cleavage was found to be 0.39. As to GUUAACGGUCAUAGGCCAUGGAAACUAGGAGCACCAUUUCGCUGCCAGUGAAGAAAUGAACAAAGAAAAUCUGGGCCAGGCAGGCAUCUAAAGUAAUAGUCUUGCGCUCAACCAGAAAGUCUGUAAUCAUUCUAAGGGUA [A89U A94U U132C], the self-cleavage was 1.83.

GUUAACGGUCAUAGGCCAUGGAAACUAGGAGCACCAUUUCGCUGCCAGUGAAGAAAUGAACAAAGAAAAUCUGGGCCAGGCAGGCAUCAGAAGGAAUGGUCUUGCGCUCAACCAGAAAGUCUGUAAUCAUUUUAAGGGUA [A90G A94G A98G]: the self-cleavage was 0.54. To GUUAACGGUCAUAGGCCAUGGAAACUAGGAGCACCAUUUCGCUGCCAGUGAAGAAAUGAACAAAGAAAAUCUGGGCCAGGCAGGCAUCAUGAGAAAUAGUCCUGCGCUCAACCAGAAAGCCUGUAAUCAUUUUAAGGGCA [A90U A91G U102C U120C U139C] belongs 1.02; to GUUAACGGUCAUAGGCCAUGGAAACUAGGAGCACCAUUUCGCUGCCAGUGAAGAAAUGAACAAAGAAAAUCUGGGCCAGGCAGGCAUCGAAAGAAAUAGUCUUGCGCACAACCAGAAAGUCUGUAAUCAUUUUAAGGGUG [A89G U108A A140G], 0.02; to GUUAACGGUCAUAGGCCAUGGAAACUAGGAGCACCAUUUCGCUGCCAGUGAAGAAAUGAACAAAGAAAAUCUGGGCCAGGCAGGCAUCGAAAGAAAUAGUCUUGCGCUCAACCAGAAAGUCUGUAGUCACUUUAAGGGUA [A89G A126G U130C], 0.68. To GUUAACGGUCAUAGGCCAUGGAAACUAGGAGCACCAUUUCGCUGCCAGUGAAGAAAUGAACAAAGAAAAUCUGGGCCAGGCAGGCAUCGAAAGAAAUAGUCUUGCGCUCAACCAGGAAGUCUGUAACCAUUUUAAGGGUG [A89G A116G U127C A140G] belongs 0.28. In the case of GUUAACGGUCAUAGGCCAUGGAAACUAGGAGCACCAUUUCGCUGCCAGUGAAGAAAUGAACAAAGAAAAUCUGGGCCAGGCAGGCAUCUAAAGGAAUAGUCCUGCGCUCAACCAGAAAGUCUGUAAUCAUUUUAGGGGUA [A89U A94G U102C A135G], the self-cleavage is 1.93.

For GUUAACGGUCAUAGGCCAUGGAAACUAGGAGCACCAUUUCGCUGCCAGUGAAGAAAUGAACAAAGAAAAUCUGGGCCAGGCAGGCAUCAGAAGAAAUAGUCUUGCACUCAACCAGAAAGUCUGUAAUCAUUUUAUGGGUA [A90G G106A A135U], the self-cleavage is 0.01.

GUUAACGGUCAUAGGCCAUGGAAACUAGGAGCACCAUUUCGCUGCCAGUGAAGAAAUGAACAAAGAAAAUCUGGGCCAGGCAGGCAUCAGAGGUAAUAGUCUUGCGCUCAACCAGAAAGUCUGUAAUCAUUUCGAGGGUA [A90G A92G A94U U133C A134G]: the self-cleavage was 1.39. To GUUAACGGUCAUAGGCCAUGGAAACUAGGAGCACCAUUUCGCUGCCAGUGAAGAAAUGAACAAAGAAAAUCUGGGCCAGGCAGGCAUCAGAAGAAAUAGUCUUGCGCUCAACCGGAGAGUCUGUAAUCAUUUUAAGGGUA [A90G A114G A117G] belongs 0.27. Regarding GUUAACGGUCAUAGGCCAUGGAAACUAGGAGCACCAUUUCGCUGCCAGUGAAGAAAUGAACAAAGAAAAUCUGGGCCAGGCAGGCAUCGAAAGAAAUGGUCUUGCGCUCAUCCAGAAAGCCCGUAAUCAUUUUAAGGGUA [A89G A98G A111U U120C U122C], the self-cleavage came out at 0.01. The result for GUUAACGGUCAUAGGCCAUGGAAACUAGGAGCACCAUUUCGCUGCCAGUGAAGAAAUGAACAAAGAAAAUCUGGGCCAGGCAGGCAUCAGAAGAAGUGGUCUUGUGCUCAACCAGAAAGCCUGUAAUCAUCUUAAGGGUA [A90G A96G A98G C105U U120C U131C] reads 0.01; that for GUUAACGGUCAUAGGCCAUGGAAACUAGGAGCACCAUUUCGCUGCCAGUGAAGAAAUGAACAAAGAAAAUCUGGGCCAGGCAGGCAUCAUAAGAAAUAGUCUUGCGCUCAACCAGAAAGUCUGUAGUCAUUUUAAGGGCA [A90U A126G U139C], 1.53.

The values are drawn from the RNAGym collection of RNA variant scans (doi:10.7554/elife.90254).
